# According to ChEMBL document CHEMBL4888484, “Replenishing the malaria drug discovery pipeline: Screening and hit evaluation of the MMV Hit Generation Library 1 (HGL1) against asexual blood stage Plasmodium falciparum ,using a nano luciferase reporter read-out” (2022):
# The whole screen tested about 150,000 compounds, of which about 540 (0.36%) showed an effect of 50% or more. This is one part of the list.
# Tested on: Plasmodium falciparum
# Assay: Primary screen in NF54 nanoGlo assay, in single point, at 2uM, 72h; a lower Z score goes with more inhibition
# Format: functional, Erythrocyte
# Conditions: timepoint 72 hour
SMILES,% Inhibition,Z score
Cc1nc(NC(=O)Cn2cnc(C#N)n2)sc1C,-11%,1.47
CCc1cc(C(=O)N2CCN(c3ccccc3Cl)CC2)nc2ccnn12,-3%,0.41
COCCN(C[C@H]1CCCO1)c1nc(C)nc2sccc12,-12%,1.87
Cc1ncc(CN2CCC(NC(=O)c3ccc[nH]3)C(C)C2)s1 (stereo not given),-5%,1.01
CN(Cc1ccoc1)C(=O)[C@@H]1CC[C@H](NC(=O)c2ncc(F)cc2F)C1,-1%,0.11
CN(C(=O)CN1CC[C@H]1c1ccc(F)cc1)C1CCCCC1,-9%,0.81
Cc1ccc(OC2CCN(Cc3ccncc3)CC2)c(C(=O)N2CCC[C@H]2CO)c1,-10%,1.4
Brc1c(OCc2nc(-c3ccncc3)no2)ccc2ccccc12,-6%,0.87
COC(=O)c1cc(Cl)cc(NC(=O)CCc2cscn2)c1,2%,-0.3
C[C@H](NCC(=O)Nc1cc(S(=O)(=O)N2CCOCC2)ccc1N1CCOCC1)c1ccco1,-32%,3.81
Cc1noc(C)c1CN1CC2(CCN(C(=O)[C@@H]3CCCO3)CC2)CC1=O,-5%,0.58
C[C@]1(Cc2cccc(F)c2)CCCN1C(=O)CN1CCCCC1=O,-1%,0.22
Cc1nn(C)c2nc(NCCN3CCCC[C@@H]3CO)sc12,-8%,1.08
O=C(c1cccc(Oc2ccccc2)c1)N1CCC[C@H]1c1nc2ccccc2s1,-9%,1.45
CN1CCCc2cc(C(=O)NCc3cccc(F)c3)sc21,-15%,2.76
CCCN1CCC(CC(=O)N[C@@H](C)[C@H](O)c2ccccc2)CC1,-17%,1.68
CC1(C)CN(C(=O)c2cnc3ccc(F)cc3c2)CCS1(=O)=O,-19%,2.59
O=C(Cc1ccccc1F)Nc1[nH]ncc1-c1ccc2c(c1)OCO2,-3%,0.55
O=C1CCCN1c1cccc(NC(=O)N2CCC[C@@H]2CO)c1,33%,-3.73
CC#CCn1nc(C2CC2)nc1C1CC1,-14%,2.13
Cc1nc(CC(C)C)oc1C(=O)N1CCn2c1nc1ccccc12,-4%,0.67
Cc1ccsc1C(=O)NCc1nc(C2CCC(F)(F)CC2)no1,-10%,1.24

SMILES,% Inhibition,Z score
O=C(Cn1ccnc1-c1cccs1)NCc1ccccc1,-11%,1.52
COC(C)c1nsc(N2CCCC2c2nc3ccccc3s2)n1 (stereo not given),-7%,1.04
Cc1ncc(C(=O)NC[C@@H]2C[C@H]2c2ccccc2)c(C2CC2)n1,-1%,0.13
CCOc1ccc(NC(=O)C[C@H]2CCCN(c3cnn(C)c(=O)c3)C2)cc1,-13%,1.71
CN1CCCN(c2cnn(Cc3cccc(F)c3C(F)(F)F)c(=O)c2)CC1,-15%,1.42
O=C1C[C@@H](c2ccccc2)N(C(=O)CNS(=O)(=O)c2ccccc2)CCCCCN1,-5%,0.61
CCc1nc(OC)ccc1NC(=O)c1snnc1C1CC1,6%,-1.21
COc1ccc(NC(=O)N2CCC(CN3CCc4ccccc43)CC2)c(C)c1,-10%,1.83
O=C(CCN1CCCCO1)N1CCN(c2ncncn2)CC1,-13%,2.52
CN1CC2(C[C@H]1c1nc(-c3ccccc3)no1)CN(C(=O)c1ccncc1)C2,-9%,1.04
CN(Cc1ncc(Br)cn1)Cc1noc2c1COCC2,9%,-1.36
COC(=O)c1ccc(N2CCC[C@H]2c2ccc(OC)cc2)nn1,2%,-0.29
COCCCn1c(C)cc(C(=O)N2CCC(C)(c3noc(-c4ccncc4)n3)CC2)c1C,1%,-0.19
O=C(NC1CCCC1)N1CC[C@H](CCOc2ccccc2F)C1,-1%,0.1
CCOc1ccc([C@@]2(O)CN3CCCCCC3=[N+]2c2ccc(C)cc2)cc1,1%,-0.19
CN1CCCC[C@@H]1CCNC(=O)c1ccc(N2CC(n3cccn3)C2)nc1,-2%,0.27
COc1cc(NC(=O)CN[C@H]2CCCc3sc(C)nc32)cc(OC)c1,-4%,0.6
CN1CCN(C(=O)c2ccn3c(-c4ccccc4)nnc3c2)CC1,-10%,1.62
Cc1cc(CS(=O)(=O)N[C@@H](C)c2ccc(Cl)cc2Cl)on1,-2%,0.29
COC[C@H]1CCCN1S(=O)(=O)NCc1csc(N)n1,-6%,0.77
Cc1cccc(C)c1OCc1cc(C(=O)N2CCN(C)C(=O)[C@@H]2C)no1,-6%,0.86
CCOC(C)C(=O)N1CCCC(CC)C1 (stereo not given),2%,-0.32

SMILES,% Inhibition,Z score
NC(=O)CN1CCC[C@H](c2ncnn2-c2ccc(OC(F)(F)F)cc2)C1,16%,-2.11
CC(=O)C1CCN(S(C)(=O)=O)CC1,-8%,1.2
CC(C)COC1CCN(CN2C(=O)C3CC=CCC3C2=O)C1 (stereo not given),-19%,1.56
CC1=C(C(=O)N2CCOCC2)[C@H](c2ccccc2Cl)n2nc(C)nc2N1,-22%,3.19
COc1cc(Cl)c(C)cc1NC(=O)Cn1nc2c3sc(N4CCCC4)nc3ncn2c1=O,-10%,0.93
CN1C(=O)c2ccccc2Oc2ccc(C(=O)NCc3ccc(F)cc3)cc21,2%,-0.3
CC(C)Oc1cc(NC(Cc2ccccn2)[C@H]2C[C@H](O)C2)nc(N)n1 (stereo not given in full),7%,-1.33
O=C(NC1CC1)c1n[nH]c2c1CCCCCC2,-6%,1.03
N#Cc1ccc(F)c(CS(=O)(=O)NCC2(C3CC3)CCC2)c1,-12%,1.11
C[C@@H](CCn1cccn1)Nc1ccc(-n2ccnn2)cc1,-11%,0.97
O=C1CC[C@@H](C(=O)NCCCOc2cccnc2)N1,-17%,1.94
O=C(NCc1nnc([C@H]2CCOC2)[nH]1)c1ccc(Cl)c2occc12,-1%,0.26
CCn1cc(C(=O)N(C)S(=O)(=O)C(C)C)cn1,0%,-0.05
CCc1noc(C2CCC(NC[C@@H](O)c3ccc(F)cc3)CC2)n1 (stereo not given in full),-10%,1.27
Cc1nn(CCN(C)C)c(=O)c2nc(N)sc12,-5%,0.57
O=C(Nc1ccccc1)C1CCN(c2cnc(N3CCCCCC3)nc2)CC1,-19%,2.18
O=C(C1CCOCC1)N(CC(F)F)c1cccc(Cl)c1,-14%,1.46
O=C1NC[C@@H](C(=O)Nc2nc(-c3ccccc3)cs2)N1,-4%,0.3
c1ccc(-c2nc(C3CCCN(CC4CCOCO4)C3)n[nH]2)cc1 (stereo not given),-5%,0.54
CCOc1cc(-c2cc(-c3ccccc3O)nc3ccc4ccccc4c23)cc(Br)c1O,82%,-8.45
Cc1cc(Cl)c(C(=O)N(C)CCCS(C)(=O)=O)cc1C,-5%,0.92
Cc1c(C(=O)NC[C@H]2CCCN(Cc3ccco3)C2)ccn1C,3%,-0.51

SMILES,% Inhibition,Z score
O=C(Nc1ccc(NC(=O)c2ccco2)cc1)c1cc2ccccc2[nH]1,-22%,3.35
Cc1nsc(NC[C@H]2CCc3ccccc3N2)n1,-7%,0.74
CC1(C(=O)O)CCC(C(=O)Nc2nc3c(s2)CCCC3)C1(C)C (stereo not given),-2%,0.28
Cc1nn(-c2ccc(Cl)cc2)cc1-c1noc(C(=O)NC2CCC(C)CC2)n1 (stereo not given),-10%,1.19
c1coc(-c2nc3nccc(-c4ccc5c(c4)OCO5)n3n2)c1,-19%,2.51
Cc1nonc1CN1CCC2(CCC(=O)N(CCc3cccnc3)C2)CC1,-6%,0.65
Cc1nc(O)nc(O)c1S(=O)(=O)N1CCC(C(=O)NCc2cccs2)CC1,-8%,1.07
Cc1cn2cccc(C(=O)N3C[C@H]4COCC[C@@]4(O)[C@@H]4COCC[C@@H]43)c2n1,3%,-0.4
CC1(C)OCC2CC21NC(=O)Nc1cc(C(F)(F)F)cc(C2CC2)n1 (stereo not given),-5%,0.62
Cc1ccc(Cl)c([C@H](C(=O)O)N2CCN(C3CCN(C)CC3)CC2)c1,0%,0.02
CO[C@H]1CCOC[C@@H]1NC(=O)CCCn1ccnc1,-9%,1.7
Cc1csc(NC(=O)[C@@H]2COCC(=O)N2Cc2cccs2)n1,-3%,0.57
CN1CCO[C@H](C(=O)Nc2ccc(-c3ccccn3)cn2)C1,-14%,1.44
CC[C@@H](CNc1cc(-c2ncon2)ccn1)N1CCOCC1,0%,0.04
CCCCN1C(=O)CC[C@@H]2CN(C(=O)COCc3ccccc3)CC[C@@H]21,-2%,0.45
O=C(c1ccccn1)c1ncn(CC(=O)N2CCCCCC2)n1,0%,0
COc1ccc(CN(Cc2n[nH]c(=O)s2)[C@@H](C)C2CC2)cc1,-15%,2.76
CCOc1cc(C(=O)N2CCN(c3nc4ccccc4n3CC)CC2)cc(OCC)c1OCC,-1%,0.13
Cc1c(-c2nc([C@H]3CCOC3)nn2-c2ccncc2)[nH]c2ccccc12,10%,-1.28
